The source of these data is patent US20240376128A1, “N-CYCLOPROPYLPYRIDO [4, 3-D] PYRIMIDIN-4-AMINE DERIVATIVES AND USES THEREOF” (Jacobio Pharmaceuticals Co., Ltd., priority 2021, published 2024).

In series [1] the target is T1, K-Ras G12C (Homo sapiens, UniProt P01116, G12C). Description: SOS1 catalyzed nucleotide exchange assay (GDP form K-Ras), TR-FRET. Conditions: read-out: Biochemical assays, IC50, K-Ras G12C GDP. How it is done: (§1) The parameters were F486: Excitation 340 nm, Emission 486 nm, Lag time 100 pas, Integration time 200 pas; F515: Excitation 340 nm, Emission 515 nm, Lag time 100 pas, Integration time 200 pas. TR-FRET ratios for each individual wells were calculated by equation: TR-FRET ratio=(Signal F515/Signal F486)*10000.

Series [2] deals with T2, K-Ras G12V (Homo sapiens, UniProt P01116, G12V). The description is as above. Conditions: read-out: Biochemical assays, IC50, K-Ras G12V GDP. As for the experimental part: as §1
In series [3] the target is T1, K-Ras G12C. Description: GTP-K-Ras (GppNp-K-Ras) and cRAF interaction assay, HTRF. The following applies: read-out: Biochemical assays, IC50, K-Ras G12C GppNp. An excerpt:
(§2) GppNp is an analog of GTP.

The next series concerns the target K-Ras G12D (Homo sapiens, UniProt P01116, G12D). The description is as above. The following applies: read-out: Biochemical assays, IC50, K-Ras G12D GppNp.
From the text: as §2

In series [4] the target is T2, K-Ras G12V. Described as above. The following applies: read-out: Biochemical assays, IC50, K-Ras G12V GppNp.
From the text: as §2

The subject of series [5] is AGS cell line (K-Ras G12D). Description: Phospho-ERK1/2(THR202/TYR204) HTRF assay. It counts as cell-based. The following applies: Homo sapiens; AGS cells (K-Ras G12D), 2 hours incubation; read-out: p-ERK, IC50(nM) AGS.
In series [6] the test system is SW620 cell line (K-Ras G12V). Description: Phospho-ERK1/2(THR202/TYR204) HTRF assay. It counts as cell-based. Conditions: Homo sapiens, read-out: p-ERK, IC50(nM) SW620.
For series [7], the system named is K-Ras mutant and K-Ras WT cell lines indicated in Table 20. Description: 2D cell growth inhibition assay (CellTiter-Glo, 6 days). The series is classed as cell-based. As for the experimental part:
Each of cells in culture medium was plated in TC-treated 96-well plates at a density indicated in Table 20 and incubated in a cell incubator overnight.

Series [8] in a line: Mouse pharmacokinetic study. The series is classed as in vivo. Conditions: female, Balb/c mouse, single dose 10 mg/kg, po, plasma; for AUC(0-t): read-out: AUC0-8h; for Cmax: read-out: Cmax. How it is done: The purpose of this study was to evaluate the pharmacokinetic properties of compounds in Balb/c mouse (♀) following single dose administration. Six mice were needed for each compound and the six mice were divided into two groups (n=3/group), group A and group B. Mice in group A were treated with a single 3 mg/kg dose of compound (iv). Mice in group B were treated with a single 10 mg/kg dose of compound (po). For each mouse in group A, blood samples were collected at the time point of 0.083, 0.5, 1, 2, 4 and 8 h post-dose. For each mouse in group B, blood samples were collected at the time point of 0.5, 1, 2, 4, 6 and 8 h post-dose. Blood samples were placed on ice until centrifugation to obtain plasma samples. The plasma samples were stored at −80° C. until analysis. The concentration of compound in plasma samples was determined using a LC-MS/MS method.
For the prodrug, only the oral PK study was performed and the dosage was adjusted to be equal to 10 mg/kg of parent drug. The concentrations of both prodrug and parent drug in plasma were determined using a LC-MS/MS method.

For series [9], the target named is T3, K-Ras WT (Homo sapiens, UniProt P01116). Description: SOS1 catalyzed nucleotide exchange assay (GDP form K-Ras), TR-FRET. Conditions: read-out: Biochemical assays, IC50, K-Ras WT GDP. As for the experimental part: as §1
The target in series [10] is T3, K-Ras WT. Description: GTP-K-Ras (GppNp-K-Ras) and cRAF interaction assay, HTRF. Conditions: read-out: Biochemical assays, IC50, K-Ras WT GppNp.
From the text: as §2

Series [11] has as its target T4, K-Ras G13D (Homo sapiens, UniProt P01116, G13D). Description: Nucleotide exchange assay (GDP form K-Ras, no SOS1 added), TR-FRET. The following applies: read-out: Biochemical assays, IC50, K-Ras G13D GDP. As for the experimental part:
as §1

The target of series [12] is T4, K-Ras G13D. Description: GTP-K-Ras (GppNp-K-Ras) and cRAF interaction assay, HTRF. The following applies: read-out: Biochemical assays, IC50, K-Ras G13D GppNp.
From the text: as §2

[13] abbreviates: SW-620, SW620 cells (K-Ras G12V), 2 hours incubation.
The mark [14] stands for this setting: 144 h, AGS (K-Ras G12D), absolute IC50, read-out: Cell Growth Inhibition, IC50, AGS.
The mark [15] stands for this setting: Homo sapiens, ASPC1, 144 h, AsPC-1 (K-Ras G12D), absolute IC50, read-out: Cell Growth Inhibition, IC50, AsPC-1.
[16] abbreviates: Homo sapiens, SW-620, 144 h, SW620 (K-Ras G12V), absolute IC50, read-out: Cell Growth Inhibition, IC50, SW620.

Read-outs that look alike come from different tables or passages of the source.

With `CCc1c(F)ccc2cc(O)cc(-c3ncc4c(N(C)[C@@H]5C[C@H]5F)nc(OC[C@@]56CCCN5C[C@H](F)C6)nc4c3F)c12.O=C(O)C(F)(F)F` (mixture of isomers) [Compound 15, 5-ethyl-6-fluoro-4-(8-fluoro-4-((trans-2-fluorocyclopropyl)(methyl)amino)-2-(((2R,7aS)-2-fluorotetrahydro-1H-pyrrolizin-7a(5H)-yl)methoxy)pyrido[4,3-d]pyrimidin-7-yl)naphthalen-2-ol 2,2,2-trifluoroacetic acid], the concentration for half-maximal inhibition (IC50) at K-Ras G12C [1] was 3.88 nM; at K-Ras G12V [2], 6.53 nM; on K-Ras G12C [3] it was greater than 1000 nM; at K-Ras G12D it was 172 nM; at K-Ras G12V [4], 568 nM; in series [5] it was 23.5 nM. For the same compound, the 50% inhibitory concentration (IC50) stood at 2.75 nM in series [6] (setting [13]), 24.1 nM in series [7] (setting [14]), 122 nM in series [7] (setting [15]) and 12.9 nM in series [7] (setting [16]). The AUC(0-t) in [8] was determined as 592 ng·h/mL. Moreover, in series [8], the Cmax worked out at 190 ng/mL.

On to `C#Cc1c(F)ccc2cc(O)cc(-c3nc(OC)c4c(N(C)C5CC5)nc(OC[C@@]56CCCN5C[C@H](F)C6)nc4c3F)c12` [Compound 2, 4-(4-(cyclopropyl(methyl)amino)-8-fluoro-2-(((2R,7aS)-2-fluorotetrahydro-1H-pyrrolizin-7a(5H)-yl)methoxy)-5-methoxypyrido[4,3-d]pyrimidin-7-yl)-5-ethynyl-6-fluoronaphthalen-2-ol], for which the IC50 was 2.17 nM at K-Ras G12V [2]; 8.69 nM on K-Ras WT [9]; 122 nM at K-Ras G12D; 232 nM on K-Ras G12V [4]; 27.8 nM in series [5]; 17.4 nM in [6] (setting [13]). Moreover, the concentration for half-maximal inhibition (IC50) in series [7] (setting [14]) worked out at 50.9 nM; in series [7] (setting [15]) it was 949 nM; in series [7] (setting [16]), 62.5 nM. Besides, the AUC(0-t) in [8] is 151 ng·h/mL. The highest concentration (Cmax) in series [8] worked out at 73.6 ng/mL.

For `O=C(O)C(F)(F)F.[2H]C([2H])([2H])N(c1nc(OC[C@@]23CCCN2C[C@H](F)C3)nc2c(F)c(-c3cc(O)cc4ccc(F)c(C#C)c34)ncc12)[C@H]1C[C@@H]1F` [Compound 7, 5-ethynyl-6-fluoro-4-(8-fluoro-4-(((1S,2S)-2-fluorocyclopropyl)(methyl-d3)amino)-2-(((2R,7aS)-2-fluorotetrahydro-1H-pyrrolizin-7a(5H)-yl)methoxy)pyrido[4,3-d]pyrimidin-7-yl)naphthalen-2-ol 2,2,2-trifluoroacetic acid], the half-maximal inhibitory concentration (IC50) at K-Ras G12D was 17.6 nM; in series [5] it was 7.23 nM; in series [6] (setting [13]), 6.36 nM; in series [7] (setting [14]), 4.69 nM; in series [7] (setting [15]), 41.9 nM; in series [7] (setting [16]) it was 2.98 nM. Also, the AUC(0-t) in [8] was 1380 ng·h/mL. The peak concentration (Cmax) in [8] is 433 ng/mL.

For `C#Cc1c(F)ccc2cc(O)cc(-c3ncc4c(N(C)[C@@H]5C[C@@H]5F)nc(OC[C@@]56CCCN5C[C@H](F)C6)nc4c3F)c12` [Compound 13, 5-ethynyl-6-fluoro-4-(8-fluoro-4-(((1R,2S)-2-fluorocyclopropyl)(methyl)amino)-2-(((2R,7aS)-2-fluorotetrahydro-1H-pyrrolizin-7a(5H)-yl)methoxy)pyrido[4,3-d]pyrimidin-7-yl)naphthalen-2-ol], the IC50 on K-Ras G12V [2] is 5.11 nM; on K-Ras WT [9] it was 32.3 nM; at K-Ras G12D it was 1310 nM; at K-Ras G12V [4], 1820 nM; at K-Ras WT [10] it was 1630 nM; in series [6] (setting [13]), 34.8 nM. Besides, the half-maximal inhibitory concentration (IC50) in series [7] (setting [16]) came out at 99.9 nM.

As for `C#Cc1c(F)ccc2cc(O)cc(-c3ncc4c(NC5CC5)nc(OC[C@@]56CCCN5C[C@H](F)C6)nc4c3F)c12` [Compound 18, 4-(4-(cyclopropylamino)-8-fluoro-2-(((2R,7aS)-2-fluorotetrahydro-1H-pyrrolizin-7a(5H)-yl)methoxy)pyrido[4,3-d]pyrimidin-7-yl)-5-ethynyl-6-fluoronaphthalen-2-ol formic acid], the half-inhibitory concentration (IC50) at K-Ras G13D [11] is 13.9 nM; on K-Ras G12V [2], 2.27 nM; on K-Ras WT [9], 6.59 nM; at K-Ras G12D, 637 nM; on K-Ras G12V [4], 1590 nM; on K-Ras G13D [12], 48.3 nM. For the same compound, the IC50 worked out at 2140 nM on K-Ras WT [10]; 49.3 nM in series [6] (SW-620, 2 h); 135 nM in series [7] (setting [16]).

With `C#Cc1c(F)ccc2cc(O)cc(-c3ncc4c(N(C)C5(C)CC5)nc(OC[C@@]56CCCN5C[C@H](F)C6)nc4c3F)c12` [Compound 19], the half-maximal inhibitory concentration (IC50) was greater than 100 nM at K-Ras G13D [11]; 9.6 nM on K-Ras G12V [2]; 55 nM on K-Ras WT [9]; 1480 nM on K-Ras G12D; 3650 nM on K-Ras G12V [4]; greater than 100 nM at K-Ras G13D [12]. The figures for the 50% inhibitory concentration (IC50) (on K-Ras WT [10]; in [6] (setting [13])) were 2870 nM and 89.2 nM, respectively.

In the case of `C#Cc1c(F)ccc2cc(O)cc(-c3ncc4c(N(C5CC5)C5CC5)nc(OC[C@@]56CCCN5C[C@H](F)C6)nc4c3F)c12` [Compound 48, 4-(4-(dicyclopropylamino)-8-fluoro-2-(((2R, 7aS)-2-fluorotetrahydro-1H-pyrrolizin-7a(5H)-yl)methoxy)pyrido[4,3-d]pyrimidin-7-yl)-5-ethynyl-6-fluoronaphthalen-2-ol], the IC50 at K-Ras G13D [11] is 50 nM; at K-Ras G12V [2] it was 10.2 nM; on K-Ras WT [9], 140 nM; on K-Ras G12D, 2620 nM; at K-Ras G12V [4] it was 3710 nM; on K-Ras G13D [12] it was greater than 100 nM.

As to `C#Cc1c(F)ccc2cc(O)cc(-c3ncc4c(N(C)C5(C#N)CC5)nc(OC[C@@]56CCCN5C[C@H](F)C6)nc4c3F)c12` [Compound 59, 1-((7-(8-ethynyl-7-fluoro-3-hydroxy-naphthalen-1-yl)-8-fluoro-2-(((2R,7aS)-2-fluorotetrahydro-1H-pyrrolizin-7a(5H)-yl)methoxy)pyrido[4,3-d]pyrimidin-4-yl)(methyl)amino)cyclopropane-1-carbonitrile], the half-inhibitory concentration (IC50) at K-Ras G13D [11] was 200 nM; at K-Ras G12V [2] it was 36.7 nM; on K-Ras WT [9] it was 214 nM; on K-Ras G12D it was 3190 nM; at K-Ras G12V [4], 4470 nM; on K-Ras G13D [12], greater than 100 nM.
